The source of these data is patent US20250026852A1 (Chugai, published 2025).

The assay addresses T1, soluble human IL-6R (human, UniProt P08887 20-357).
T1 construct: also called hsIL-6R; recombinant human IL-6R
T1 sequence: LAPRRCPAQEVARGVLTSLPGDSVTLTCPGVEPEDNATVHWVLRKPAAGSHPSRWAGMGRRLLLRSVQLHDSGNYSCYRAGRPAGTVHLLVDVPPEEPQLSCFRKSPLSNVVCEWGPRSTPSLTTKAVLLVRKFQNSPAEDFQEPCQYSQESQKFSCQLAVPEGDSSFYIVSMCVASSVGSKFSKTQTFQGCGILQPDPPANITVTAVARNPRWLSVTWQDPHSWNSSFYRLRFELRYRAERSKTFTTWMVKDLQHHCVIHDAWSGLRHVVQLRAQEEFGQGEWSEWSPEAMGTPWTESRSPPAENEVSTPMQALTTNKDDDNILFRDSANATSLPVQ
Nature of the assay: BLI (Octet), in the same way as in Example 3. In general terms: Biolayer interferometry detects binding as a change in optical thickness at a sensor tip.

B1: 20A11-G1m/VL1-40-lamL (other)
heavy: EVQLVESGGGLVQPGGSLRLSCAASGSVFKINVMAWYRQAPGKGRELVAGIISGGSTSYADSVKGRFTISRDNAKNTLYLQMNSLRPEDTAVYYCAFITTESDYDLGRRYWGQGTLVTVSS[gap - human IgG1 constant region]
light: QSVLTQPPSVSGAPGQRVTISCTGSSSNIGAGYDVHWYQQLPGTAPKLLIYGNSNRPSGVPDRFSGSKSGTSASLAITGLQAEDEADYYCQSYDNSLNAVVFGGGTKLTVLGQPKAAPSVTLFPPSSEELQANKATLVCLISDFYPGAVTVAWKADSSPVKAGVETTTPSKQSNNKYAASSYLSLTPEQWKSHRSYSCQVTHEGSTVEKTVAPTECS
notes: IgG antibody-like molecule; VHH 20A11 in place of VH
Take B1: the binding result is given as “binds”.

B2: 20A11-G1m/VL3-21-lamL (other)
heavy: EVQLVESGGGLVQPGGSLRLSCAASGSVFKINVMAWYRQAPGKGRELVAGIISGGSTSYADSVKGRFTISRDNAKNTLYLQMNSLRPEDTAVYYCAFITTESDYDLGRRYWGQGTLVTVSS[gap - human IgG1 constant region]
light: SYVLTQPPSVSVAPGKTARITCGGNNIGSKSVHWYQQKPGQAPVLVIYYDSDRPSGIPERFSGSNSGNTATLTISRVEAGDEADYYCQAWDSSTDVVFGGGTKLTVLGQPKAAPSVTLFPPSSEELQANKATLVCLISDFYPGAVTVAWKADSSPVKAGVETTTPSKQSNNKYAASSYLSLTPEQWKSHRSYSCQVTHEGSTVEKTVAPTECS
notes: as for B1
B2: the binding result was “binds”.

B3: 20A11-G1m/VL2-14-lamL (other)
heavy: EVQLVESGGGLVQPGGSLRLSCAASGSVFKINVMAWYRQAPGKGRELVAGIISGGSTSYADSVKGRFTISRDNAKNTLYLQMNSLRPEDTAVYYCAFITTESDYDLGRRYWGQGTLVTVSS[gap - human IgG1 constant region]
light: QSALTQPASVSGSPGQSITISCTGTSSDVGGYNYVSWYQQHPGKAPKLMIYEVSNRPSGVSNRFSGSKSGNTASLTISGLQAEDEADYYCSSYRSGYTLVVFGGGTKLTVLGQPKAAPSVTLFPPSSEELQANKATLVCLISDFYPGAVTVAWKADSSPVKAGVETTTPSKQSNNKYAASSYLSLTPEQWKSHRSYSCQVTHEGSTVEKTVAPTECS
notes: as for B1
Regarding B3, the binding result is listed as “binds”.
